Experimental data as given in PubChem BioAssay AID651820 (National Center for Advancing Translational Sciences (NCATS), 2012).
The whole screen tested about 340,000 compounds, of which about 12,000 (3.5%) were called active. Inconclusive results, whose numbers are uncertain, are shown with a selection of clear calls. Calls follow the shape of the dose curve; as a rule, active = well fitted inhibition curve with a large enough effect; inconclusive = small, poorly fitted or top-dose-only effect, or another doubt; inactive = no such curve, though single readings can be large or run the other way. Potencies of inconclusive entries are left out as doubtful fits.

experiment: qHTS Assay for Inhibitors of Hepatitis C Virus (HCV); conditions: Huh7.5.1 HCVcc-Cre (HCVcc is cell-culture hepatitis C virus) infection, luciferase reporter, 44 h; series mostly up to 41.8 µM
In short: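 Whole-lifecycle infectious HCVcc-Cre system; cells 1,000/well, compound then virus (~0.5 moi) added 4 h after plating, 44 h culture. Luciferase read 15 sec following 15 min substrate incubation, room temp.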
Potency is read from the fitted curve at half-maximal effect; tags tell the direction and shape of the fitted curve.

Row | SMILES | Potency
1 | COc1cccc(NC(=O)CCc2nc(-c3cccs3)no2)c1 | inactive
2 | Cc1ccc(OP(=O)(Nc2cccc(C)c2)Oc2ccc(C)cc2)cc1 | inconclusive [inhibitor, single point]
3 | CCc1ccc(NC(=O)c2[nH]c(C)c(C(C)=O)c2C)cc1 | inconclusive [inhibitor, partial curve]
4 | CCC(C)Sc1cccc(-c2nc3ccc(C)cn3c2NC2CCCCC2)c1 (stereo not drawn) | inactive
5 | O=S(=O)(c1ccccc1)N1CCN(c2nc(-c3cccnc3)nc3ccccc23)CC1 | inconclusive [inhibitor, single point]
6 | N#CCC1c2ccccc2CCN1C(=O)Nc1ccc(Cl)cc1 (stereo not drawn) | inconclusive [inhibitor, partial curve, poor fit]
7 | O=C1C=C(O)C(n2cncn2)C(c2ccc3c(c2)OCO3)C1 (stereo not drawn) | inactive
8 | CC(C)CNS(=O)(=O)c1ccc(Br)cc1N1CCC[C@@H]1CO | inactive
9 | COc1ccc(N(CC(=O)NCCSc2ccccc2)S(=O)(=O)c2ccccc2)c(OC)c1 | inconclusive [inhibitor, single point]
10 | C/C=C/c1ccc(OCCCCN2CCC(C)CC2)c(OC)c1 | active: 14.1 µM
11 | Cc1cc(C)c(C(=O)COC(=O)c2cc([N+](=O)[O-])ccc2N2CCOCC2)cc1C | inactive
12 | CC1CCN(S(=O)(=O)c2ccc(NC(=O)CN3CCCCCC3)cc2)CC1 | inconclusive [inhibitor, full curve]
13 | COc1ccccc1NC(=S)N(Cc1ccccc1)Cc1ccccn1 | inactive
14 | CCC(NC(=O)c1ccccc1NC(=O)c1ccccc1)C(=O)NNC(=O)CSc1nc2ccccc2o1 (stereo not drawn) | inconclusive [inhibitor, partial curve, poor fit]
15 | O=C(Cc1ccccc1)NCC(=O)N1CCN(c2ccccc2)CC1 | inactive
16 | COc1cc(C(=O)NC(=S)Nc2ccc(Cc3ccncc3)cc2)cc(OC)c1OC | inconclusive [inhibitor, single point]
17 | NC(=O)C1CCN(CC(=O)Nc2cccc(C(=O)Nc3cccc(C(F)(F)F)c3)c2)CC1 | inactive
18 | Cc1c(-c2ccccc2)cnc2c(C)cccc12 | active: 11.2 µM
19 | O=C(CCc1nnc(-c2ccsc2)o1)N1CCc2c(Cl)cccc2C1 | inactive
20 | Cc1ccc(S(=O)(=O)Nc2cccc3cccnc23)c([N+](=O)[O-])c1 | inconclusive [inhibitor, partial curve, poor fit]
21 | CN1CCN(C(=O)C2CC(c3c(F)cccc3Cl)=NO2)CC1 (stereo not drawn) | inactive
22 | COc1ccc(C(CC(=O)N2CCCC2)c2c(OC)cc(OC)c3c(-c4ccccc4)cc(=O)oc23)cc1 (stereo not drawn) | inconclusive [inhibitor, single point]
23 | COc1ccc(C(=O)NCc2ccc(-c3nc4ccccc4s3)cc2)cc1OC | inconclusive [inhibitor, single point]
24 | Cc1nc2ccccc2c2c1CC(C)S2 (stereo not drawn) | inconclusive [inhibitor, partial curve]

Row | SMILES | Potency
25 | O=C(CSc1ncccn1)N1CCN(S(=O)(=O)c2ccccc2)CC1 | inactive
26 | COc1cccc(NS(=O)(=O)NC(=O)c2c(C)[nH]c3ccccc23)c1 | inactive
27 | COc1ccc(/C(N)=N/OC(=O)C2CCC(=O)N2S(=O)(=O)c2ccc(C)cc2)cc1OC (stereo not drawn) | inactive
28 | CCOc1cc(Cl)c(NC(=O)c2ccco2)cc1OCC | inconclusive [inhibitor, partial curve]
29 | O=C(NCC1COc2ccccc2O1)c1cccc(S(=O)(=O)N2CCN(c3ccccc3)CC2)c1 (stereo not drawn) | inconclusive [inhibitor, full curve]
30 | CC(C)OC(=O)COc1cc(O)c2c(=O)cc(-c3ccccc3)oc2c1 | inactive
31 | CC/C(=C/c1sc2ccccc2[n+]1CC)SC | inconclusive [inhibitor, partial curve, poor fit]
32 | CCCc1cc(=O)[nH]c(SCC(=O)Nc2cc(S(=O)(=O)N3CCOCC3)ccc2N(CC)CC)n1 | inactive
33 | CC(C)n1nccc1N(Cc1ccc(Br)cc1)S(=O)(=O)c1ccccc1 | inactive
34 | Cc1cc(NC(=O)c2ccc(Cl)cc2Cl)no1 | inactive
35 | CN1CCN(c2ccc(S(=O)(=O)N3CCCCC3)cc2NC(=O)/C=C/c2ccc(Cl)c([N+](=O)[O-])c2)CC1 | inconclusive [inhibitor, partial curve, poor fit]
36 | COc1ccc(N2CCN(c3nc4cc(C)ccc4cc3C=O)CC2)cc1 | active: 11.2 µM
37 | COc1ccc(N2CCN(c3nccs3)CC2)cc1 | inactive
38 | COc1ccc(-c2noc(CSc3nc(N)cc(=O)[nH]3)n2)cc1 | active: 25.1 µM
39 | CC(C)=CCC/C(C)=C/CNC(=O)C[C@H]1C[C@H](C(=O)N2CCOCC2)[C@@]2(CCC3CCCC3)c3[nH]c4cc(CCC(=O)N(C)C)ccc4c3CCN2C1=O | active: 11.2 µM
40 | NS(=O)(=O)c1ccc(NCc2ccccc2OCc2ccccc2F)cc1 | inconclusive [inhibitor, single point]
41 | O=C(CSc1ncccn1)N1CCCCCC1 | inactive
42 | CCc1ccc(OCC(=O)O/N=C(\N)c2ccccn2)cc1 | inactive
43 | Cc1cccc(NC(=S)NC(=O)c2ccc(-c3ccccc3)cc2)n1 | inconclusive [inhibitor, partial curve]
44 | O=C(CCCn1c(=S)[nH]c2cc3c(cc2c1=O)OCO3)N1CCN(c2ccccn2)CC1 | inconclusive [inhibitor, single point]
45 | N#CC1=C(N)Oc2c(sc3ccccc23)C1c1ccco1 (stereo not drawn) | inconclusive [inhibitor, single point]
46 | C=CCn1c(NC(C)c2cc(Cl)ccc2O)nc2ccccc21 (stereo not drawn) | inconclusive [inhibitor, single point]
47 | CC1Cc2nc(SCC(N)=O)n(Cc3ccccc3)c(=O)c2S1 (stereo not drawn) | inactive
48 | O=C(CSc1ncccn1)n1c2c(c3ccccc31)CCCC2 | inconclusive [inhibitor, partial curve, poor fit]
